Measured values as given in PubChem BioAssay AID1347073 (National Center for Advancing Translational Sciences (NCATS), 2019).
Hit rate of the full screen: of about 45,000 compounds, about 200 (0.44%) were called active. The inconclusive results got no clear call from the source; some entries with a clear call stand among them for comparison. Calls follow the shape of the dose curve; as a rule, active = well fitted activation curve with a large enough effect; inconclusive = small, poorly fitted or top-dose-only effect; inactive = no such curve, though single readings can be large or run the other way. Potencies of inconclusive entries are doubtful fits and often do not repeat.
Potency is read from the fitted curve at half-maximal effect; tags tell the direction and shape of the fitted curve.

Assay: qHTS of TDP-43 Inhibitors: NCGC Sytravon Library Screen; also: nearly all actives have a fitted effect of over 55% in size; as to growth rescue (activation): 0% is about no effect
Settings: yeast TDP-43 toxicity rescue, BacTiter-Glo growth, 24 h; growth rescue (activation): at 46.1 µM (top of the series)
Method in brief: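 TDP-43-expressing yeast, pregrown in raffinose, seeded at OD600 0.02 in galactose medium with compound for 24 hr at 30 deg C. Growth read by BacTiter-Glo luminescence, so rescue of toxicity appears as activation.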
In the case of CCCN(CCC)C(=O)CSc1nc2ccccc2c(=O)n1Cc1ccco1, the “growth rescue (activation)” value is reported as inactive: 12.5%. With Cc1ccc(C)c(N2CCN(c3cc(C)nc4c(-c5ccc(Cl)cc5)c(C)nn34)CC2)c1 the “growth rescue (activation)” value was inactive: 8.37%. In the case of OC(c1ccc(Cl)c(Cl)c1)c1ncc(-c2ccc(Cl)cc2)[nH]1 (stereo unspecified), the Potency is reported as inconclusive: 15.8 µM [activator, partial curve, poor fit]. In the case of N/C(=N\OC(=O)CC1CCCCC1)c1ccc([N+](=O)[O-])cc1, the Potency is reported as active: 17.8 µM. With Cc1ccc(-n2c(C)cc(/C=N/NC(N)=S)c2C)cc1 the Potency was active: 14.1 µM. With COc1cccc(NC(=O)C(Cc2ccccc2)n2cccc2)c1 (stereo unspecified) the Potency was inconclusive: 14.1 µM [activator, partial curve, poor fit]. With Cc1cc(Nc2ncc(Cl)cc2Cl)n(-c2ccccc2C)n1 the Potency was inconclusive: 14.1 µM [activator, partial curve, poor fit]. With Cc1cccc(N(Cc2ccccc2)C(=O)c2ccccc2F)c1 the Potency was inconclusive: 22.4 µM [activator, single point]. With N/C(=N\OC(=O)Cc1ccccc1)c1ccc([N+](=O)[O-])cc1 the Potency was active: 11.2 µM. For Cc1cccc(NC(=O)CO/N=C/c2ccc3c(c2)OCO3)c1, the Potency was inconclusive: 8.91 µM [activator, partial curve, poor fit]. In the case of Cc1cccc(NC(=O)c2cc(-c3ccc(C)s3)nc3ccccc23)n1, the Potency is reported as inconclusive: 14.1 µM [activator, partial curve, poor fit]. With COc1cc(NC2c3ccccc3C(=O)N2Cc2ccc3c(c2)OCO3)cc(OC)c1 (stereo unspecified) the Potency was inconclusive: 35.5 µM [activator, single point]. In the case of COCC(C)n1c(C)cc(C(=O)CSc2cc(C)c3ccccc3n2)c1C (stereo unspecified), the Potency is reported as inconclusive: 31.6 µM [activator, single point]. For Cc1nonc1NC(=O)CSc1nc2ccc(Cl)cc2[nH]1, the “growth rescue (activation)” value was inactive: 22.3%. In the case of O=C(CSCc1ccccc1)Nc1ccc(F)c(F)c1, the Potency is reported as inconclusive: 20 µM [activator, partial curve, poor fit]. For COc1cc(OC)c(NC(=O)C2=C(C)C(=O)OC23CCCCC3)cc1Cl, the “growth rescue (activation)” value was inactive: 32.9%. For Cc1ccc(CN(C(=O)COc2ccc(C(C)(C)C)cc2)C2CCS(=O)(=O)C2)o1 (stereo unspecified), the “growth rescue (activation)” value was inactive: 10.8%. With CCOc1cc(S(=O)(=O)N(CC)CC)ccc1Cl the Potency was inconclusive: 35.5 µM [activator, partial curve, poor fit]. For Cc1ccc(S(=O)(=O)N(CCC#N)C2CCCCC2)c2nsnc12, the Potency was inconclusive: 12.6 µM [activator, partial curve, poor fit]. With O=C(c1cc([N+](=O)[O-])cc([N+](=O)[O-])c1)N1CCOCC1 the Potency was inconclusive: 28.2 µM [activator, partial curve, poor fit]. With Cc1cc(-c2ccccc2)nc(N/N=C/c2ccccc2F)n1 the Potency was inconclusive: 11.2 µM [activator, partial curve, poor fit]. With CC1(C)CC2CC(C)(CN2C(=O)CCCN2C(=O)c3ccccc3C2=O)C1 (stereo unspecified) the Potency was inconclusive: 35.5 µM [activator, single point]. In the case of CC(NC(=O)c1cc([N+](=O)[O-])cc([N+](=O)[O-])c1)C1CC2CCC1C2 (stereo unspecified), the Potency is reported as inconclusive: 8.91 µM [activator, partial curve, poor fit]. For CCOc1ccc(NC(=O)CNC(=O)COc2ccccc2)cc1, the “growth rescue (activation)” value was inactive: 17%. With Cc1ccc(CCNC(=O)C2CCN(c3nnc(-n4cccc4CNc4ccc(C)cc4)s3)CC2)cc1 the Potency was inconclusive: 15.8 µM [activator, single point]. In the case of O=C(COC(=O)c1ccccc1Br)Nc1cccnc1Cl, the Potency is reported as inconclusive: 28.2 µM [activator, partial curve, poor fit]. In the case of O=C(Nc1ccccc1)OC1CC2CC1C1CCCC21 (stereo unspecified), the Potency is reported as inconclusive: 35.5 µM [activator, single point]. In the case of CCc1nnc(N2C(=O)c3ccccc3C2(O)c2ccccc2)s1 (stereo unspecified), the Potency is reported as inconclusive: 35.5 µM [activator, single point]. In the case of Cc1ccc(C)c(SCc2nc3sc(C(=O)O)c(C)c3c(=O)[nH]2)c1, the Potency is reported as inconclusive: 35.5 µM [activator, single point]. In the case of Cn1cc(-c2cc3n(n2)CCC(=O)N3CC(=O)O)c2ccccc21, the “growth rescue (activation)” value is reported as inactive: -1.73%. With CCOc1ccc(NCc2cccn2-c2nnc(N3CCC(C(=O)NCCc4ccc(OC)c(OC)c4)CC3)s2)cc1 the “growth rescue (activation)” value was inactive: 1.72%. In the case of COc1cccc(NC(=O)N2CCc3nc(Nc4ccc(C(C)C)cc4)ncc3C2)c1, the growth rescue (activation) is reported as inconclusive: 147% [activator]. With COCCCNc1ccn2nc(-c3cccc(Cl)c3)cc2n1 the Potency was inconclusive: 12.6 µM [activator, partial curve, poor fit]. For COc1ccc(Cl)cc1NC(=O)CNC(c1ccccc1)c1ccccc1, the Potency was inconclusive: 20 µM [activator, partial curve, poor fit]. In the case of C=CCn1c(COc2cccc(C)c2C)nnc1SCC(=O)N1CCN(c2ccccc2)CC1, the Potency is reported as inconclusive: 17.8 µM [activator, single point]. With O=C(NCCc1ccccc1)C1Cc2c(-c3ccccc3)ccnc2O1 (stereo unspecified) the Potency was inconclusive: 12.6 µM [activator, single point]. With CC1CCC(C(=O)NNC(=O)c2cc(-c3ccco3)[nH]n2)CC1 (stereo unspecified) the Potency was inconclusive: 35.5 µM [activator, single point]. For CN(C)c1ccc(/C=N/NC(=O)CCCCCNC(=O)c2ccccc2)cc1, the Potency was inconclusive: 15.8 µM [activator, partial curve, poor fit]. In the case of COc1ccc(-c2cc3ccc(O)c(CN4CCN(CCO)CC4)c3oc2=O)cc1OC, the “growth rescue (activation)” value is reported as inactive: 3.33%. For N/C(=N\OC(=O)Cc1ccc(-c2ccccc2)cc1)c1ccncc1, the Potency was inconclusive: 14.1 µM [activator, single point]. With CS/C(=N\S(=O)(=O)c1ccccc1)c1ccccc1 the Potency was inconclusive: 35.5 µM [activator, single point]. In the case of O=C1NC2(CCCCCC2)C(=O)N1Cc1ccccc1Cl, the Potency is reported as inconclusive: 14.1 µM [activator, single point]. In the case of Cc1nc(C(F)(F)F)ccc1C(=O)N1CCC1(C)C(=O)NS(=O)(=O)c1ccc(C(C)(C)C)cc1 (stereo unspecified), the “growth rescue (activation)” value is reported as inactive: 5.48%. In the case of CC(=O)c1ccc(N2CCN(CC(O)COC(c3ccccc3)c3ccccc3)CC2)cc1 (stereo unspecified), the growth rescue (activation) is reported as inconclusive: -71.5% [activator]. In the case of COc1ccc(Cl)cc1NC(=S)NCCSc1ccc(C)cc1, the Potency is reported as active: 12.6 µM. In the case of CC1(C(=O)NCc2cccc(Cl)c2)Cc2c(-c3ccc4c(c3)OCO4)ccnc2O1 (stereo unspecified), the growth rescue (activation) is reported as inconclusive: 85.2% [activator]. In the case of Cc1cc(/C=N/n2cnnc2)c(C)n1-c1ccc2ncccc2c1, the Potency is reported as inconclusive: 35.5 µM [activator, single point]. In the case of O=C(c1ccc(Cl)s1)N1CCN(c2ncccn2)CC1, the Potency is reported as inconclusive: 35.5 µM [activator, single point]. With CCOC(=O)C1CCCN(c2c(NCCc3ccccc3)c(=O)c2=O)C1 (stereo unspecified) the Potency was inconclusive: 15.8 µM [activator, single point]. With COc1cc(C(O)c2nc(-c3cccc(C#N)c3)cs2)ccc1F (stereo unspecified) the growth rescue (activation) was inconclusive: 54.5% [activator]. With COc1cc(C(=O)OCC2CC(c3ccccc3)=NO2)cc(OC)c1OC (stereo unspecified) the “growth rescue (activation)” value was inactive: 14.6%. In the case of FC(F)(F)Oc1ccc(NC(=S)NCc2ccccc2)cc1, the Potency is reported as inconclusive: 17.8 µM [activator, partial curve, poor fit]. With O=C(COC(=O)CCSc1ccccc1Cl)Nc1ccc(F)cc1F the Potency was inconclusive: 35.5 µM [activator, single point]. In the case of CCOc1ccc(NC(=O)CSc2ccc3ccccc3n2)cc1, the “growth rescue (activation)” value is reported as inactive: 14.2%. With O=C(Nc1ccc(Cl)cc1)c1csc([C@H]2C[C@H](O)[C@@H](CO)O2)n1 the “growth rescue (activation)” value was inactive: -7.86%. For O=C(c1ccccc1C(=O)N1CCN(c2ccccc2F)CC1)N1CCN(c2ccccc2F)CC1, the Potency was inconclusive: 35.5 µM [activator, single point]. For CCC(C)c1ccc(NC(=S)NCCn2cc(Br)cn2)cc1 (stereo unspecified), the Potency was inconclusive: 20 µM [activator, single point]. In the case of O=C(COC(=O)C1CCN(c2ccc(C(F)(F)F)cn2)CC1)NCc1cccc(Cl)c1, the Potency is reported as inconclusive: 11.2 µM [activator, partial curve, poor fit]. With Cc1ccccc1NC(=O)NC1(C(=O)NCC2CCCO2)CCCCC1 (stereo unspecified) the “growth rescue (activation)” value was inactive: -8.28%. For C=CCSc1nnc(-c2cc3c(C(F)(F)F)nn(C)c3s2)n1C, the Potency was inconclusive: 11.2 µM [activator, single point]. In the case of Cc1ccc(C(=O)OCC(=O)c2ccc(Cl)s2)s1, the Potency is reported as inconclusive: 17.8 µM [activator, partial curve, poor fit]. With COc1ccc(-c2noc(C(=O)NCc3ccc(F)cc3)n2)cc1OC the Potency was inconclusive: 31.6 µM [activator, single point]. For O=C(O)c1cc(-c2ccc3ccccc3n2)nc2ccccc12, the Potency was inconclusive: 11.2 µM [activator, partial curve, poor fit]. In the case of S=C(NCc1ccc2c(c1)OCO2)Nc1ccc(-c2nc3ccccc3[nH]2)cc1, the Potency is reported as inconclusive: 12.6 µM [activator, partial curve, poor fit]. With O=C(COc1ccccc1[N+](=O)[O-])NCC1COc2ccccc2O1 (stereo unspecified) the Potency was inconclusive: 35.5 µM [activator, partial curve, poor fit]. With CC(=O)Nc1ccc(-c2ccnc3c2CC(C)(C(=O)Nc2ccc(F)c(Cl)c2)O3)cc1 (stereo unspecified) the Potency was inconclusive: 20 µM [activator, single point].
